Results from the supplement of paper PMC11417369.
Some of the results follow.

The sequences below were run on PfAP2-HC AP2 domain (GST-tagged) (assay: gcPBM binding intensity (ln(normalized median fluorescence intensity)); higher = stronger DNA binding).
How it was run: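 Binding intensity is the highest Masliner-normalised natural-log median intensity over replicate spots in either probe orientation. To obtain it, GST-tagged P. falciparum DNA-binding domains made in E. coli were incubated for 1 h on an Agilent 4 × 180k array of primer-extended double-stranded 36-bp intergenic genomic probes plus negative controls. Detection used Alexa488 anti-GST antibody with scanning at 488 nm.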

Row | Sequence | gcPBM binding intensity (ln)
1 | TACAATTTGATATATACACACAAATAAATTATGCTT [CACACA_site6534] | 9.71
2 | ATAATATTATACTTTGCACACATCTGAAATGACATA [CACACA_site3952] | 9.79
3 | AAAGAATTTAAATATTGTACGCAATATATAAAAAAA [XGTACX_site7616] | 9.64
4 | TAATATTATTATTTTACACACTTTTTTCCTTTTATC [CACACA_site2457] | 9.88
5 | TTCTATATATATATAGACAAACGATAAAATAAAAAA [GTGCAC_negctrl_site142] | 9.48
6 | TAATAATAGTGAGAGTGTACTTTAAATAAAATATAT [XGTACX_site2850] | 9.73
7 | GATGTTCATCACTACACACACAAAGAAATATAAATA [CACACA_site7294] | 10.1
8 | TACCCAAAGTTACATACACACTAATATTTACACCAT [CACACA_site4709] | 9.92
9 | ATATGAAGTTATATAGTGCACATGTACAACCAAATC [GTGCAC_site9974] | 9.91
10 | AGAAAAGAAATTAGTTGTACTCTGATGAATTATCCT [XGTACX_site6284] | 9.5
11 | ATATATTTTTTGAATACACACATATTATAGGTAATA [CACACA_site6709] | 9.63
12 | CGTATAAATATACGTGCATGTAACTTTTTCTATATT [TGCATGCA_site981] | 9.74
13 | CTATTTATTTTTGATGCATGCCAAATATAGAAAAAA [TGCATGCA_site368] | 9.31
14 | TAGTAGTTATCACTAACATGCAATAATATTATTTAA [TGCATGCA_site161] | 9.61
15 | TGACTGTAGATATTTTGTACATAACCTAATATATAT [XGTACX_site970] | 9.71
16 | TACAGTTCAATGAAGGTGCAATTAATATATAAAATA | 9.62
17 | ATAATATAATACGAAGGTACACATTTTCTTAATATA [XGTACX_site7947] | 9.63
18 | TTATGTACAATTTCTTCTTTCTTTTTTCCTAAAGAC [CACACA_negctrl_site1193] | 9.34
19 | ATAACATATATATATACACACACATATATATATGAA [CACACA_site7983] | 9.98
20 | TTTTTTTTTTTTTTTTGTACACATAATATGAATAAT [XGTACX_site2661] | 9.34
21 | TTTTTTTTTCTTTTCAAACACACAATTGGTATATAT [CACACA_site3321] | 9.91
22 | TCATTTCACAGACACACACACACAATATATTTCCTT [CACACA_site9295] | 10.8

Row | Sequence | gcPBM binding intensity (ln)
23 | ATATTTTTATTAGTAGTGCAATTTAGTGTATATATA [GTGCAC_site9542] | 9.56
24 | AAAAAAAAAATTAAAACATGCATAAATAAATATATT [TGCATGCA_site866] | 9.66
25 | TATGTGTAATATTTTTGTACAGAAAAAAAAAAAAAA [XGTACX_site7075] | 9.41
26 | AAAAAAAAAAAAAACACACACATGCACATCATATTA [CACACA_site4467] | 10.2
27 | TATTACTATGTTATAACTTTTTTAAACGTGATCATA [TGCATGCA_negctrl_site128] | 9.46
28 | AAAAAAAAAAAATATACACACTAATATATTTTTTTA [CACACA_site4604] | 9.57
29 | TATTTAAAAAGAAAAAAAAAAAAAAAAATACATATA [CACACA_negctrl_site164] | 9.44
30 | TATTAAATTTATCGGAGTACATTTAAATGTATATAC [XGTACX_site7975] | 9.53
31 | TGTATAAGTATTAATACACACACAAAATAATAAAAA [CACACA_site9156] | 10.4
32 | TACTTACATTATTTATTTATATAAAAAGTTAATTAT [XGTACX_negctrl_site433] | 9.46
33 | ATAATTAACAAATACACACACACACCCCCACAAAAA [CACACA_site518] | 10.9
34 | AGTATTCATAAAAATACACACATGGAAAAATAAACT [CACACA_site6796] | 10
35 | AAATTAAAATATAATACACACATAAAAAAAAAAAAA [CACACA_site4183] | 10.2
36 | TATATATTTTTTTTTTGTACTCACAATATATGTATG [XGTACX_site8024] | 9.65
37 | AATTTTTTATATGTCACACATTTATTATTATTATTA [CACACA_site4198] | 9.83
38 | TGTAATATAAAATTTTGTACTCAAAAATTTATATAT [XGTACX_site3252] | 9.47
39 | ACTTATAAAAACATATACCCCATCGCATTTTTTCCA [XGTACX_negctrl_site177] | 9.82
40 | TTCCAAAAAGTTATTACACACATATGTGCACATATA [CACACA_site6465] | 9.87
41 | TTCCAAACCTCATTATGGAAAATAAAAAAATAAAAA [XGTACX_negctrl_site17] | 9.28
42 | ATAAAATATTTTTGAACATGCAGGTAAAAAATAAAA [TGCATGCA_site1019] | 9.64
43 | AGAATATTATATTATGCATGCATATAGAAAAATATA [TGCATGCA_site302] | 9.68
44 | TTTATTAGTAATTATACACACATATAAAATGAATAA [CACACA_site6754] | 9.67

Row | Sequence | gcPBM binding intensity (ln)
45 | TATATTTATAGGTACACACACACATATAAATAAATA [CACACA_site6345] | 10.5
46 | ATAAAATTATATTTTGCATGCAGGCCTTTTTCTTAA [TGCATGCA_site1030] | 9.86
47 | AAAAAAAAAAAAAACACACACATATATATATATATA [CACACA_site1891] | 10.4
48 | TAAAAAAAATAGTCAAGTACATAAGAAGGGAAGAAA [XGTACX_site8733] | 9.81
49 | TTATTCATATTATCATGTACTTATATATATTGTCAT [XGTACX_site2231] | 9.8
50 | TTTAATTTTTTTAATTCACACATTATTCCATCCTTT [CACACA_site5480] | 9.69
51 | AATAAATAAGCAACATGTACATACAAATATATACAT [XGTACX_site8529] | 9.85
52 | ATTTTCCATTGTGCTACACACAACGGTTCGCAATAA [CACACA_site2974] | 9.76
53 | ATCTAATAAAAATACACACACATATGATTTGTGAAT [CACACA_site1867] | 10.2
54 | TTTTGTTTATTATGATTCAAAATGATTTTATCTTTG [TGCATGCA_negctrl_site425] | 9.5
55 | TATTATATATATAAATGTACTTATTTTAATTCCCCT [XGTACX_site8638] | 9.51
56 | AAAAAAACATGAAACACACACAAATATTTATTTATA [CACACA_site6967] | 10.2
57 | TCTTTTAAAAAAAAAGGAGGAACATAAAAAGTAGAA [XGTACX_negctrl_site272] | 9.63
58 | ATATAATTAAAATGCTCACACACATAAAAAAAAATT [CACACA_site2148] | 10
59 | CACATATATATGTGTGCATGTTGTATTATATATTTA [TGCATGCA_site632] | 10.2
60 | ATAATTACAAAATAAACACACATATAGATTTATATG [CACACA_site6343] | 10.1
61 | TACATAATACATATAACACACACAATTATACATAAA [CACACA_site9060] | 10.4
62 | ATTTTATTTTTTAAAGGTACAGTTACAGCTTATATA [XGTACX_site7513] | 9.51
63 | GTACATATATACATTACACACGGTTTGATTTAAAAA [CACACA_site3379] | 9.75
64 | ATATTTAAATGTAATACATGCAAATTTGAACATTTT [TGCATGCA_site736] | 9.75
65 | TAATATATTAACATGGGTACATATTATTTCATGTGT [XGTACX_site5985] | 9.75
66 | AAAAAAAAAAAAATCACACATATGTATTTATATATA [CACACA_site5790] | 9.56

Row | Sequence | gcPBM binding intensity (ln)
67 | AACAAACACGGACACACACACACACTAGAATGATTA [CACACA_site5364] | 10.7
68 | AAAAATTTAAGTGGGGGTACATTTTTTTAACACCTT [XGTACX_site1093] | 9.88
69 | TAAAAATGTGGACACACACACATATTTATATTTAAT [CACACA_site6827] | 10.1
70 | TTTTACAAAATAAAAATATAGAATACGGTAAATTAT [GTGCAC_negctrl_site40] | 9.56
71 | TGTTGATGATATTACACACCCAATGAGAAAAGGAAT [CACACA_site2072] | 9.81
72 | AAATAAGAGCGTAGCACACACGCATTTTATAAATGT [CACACA_site741] | 9.87
73 | TATCATTTTATTATTCTACACACTTATCTATAATTA [CACACA_site7894] | 9.88
74 | TTTTTTTTTTTTTTTGCATGTTGTTTAATGTATTGT [TGCATGCA_site772] | 9.39
75 | AAATATTTTTTTTCTACACACATACAAATATAGATT [CACACA_site7164] | 9.73
76 | ATGCCCCATATAAACACACAAATAAAAAGAATATAC [CACACA_site7292] | 10.2
77 | ATATTTAAAGAATAAGTGCAAAATGTAATTAATTTT [GTGCAC_site9901] | 9.7
78 | TATATTTTATAAAAAAGTACACATGAAAATGTATTT [XGTACX_site5889] | 9.49
79 | TGTAGTCTGGAGAAACGTACACAGTATCTGGTAACA [XGTACX_site4938] | 9.48
80 | AAAGGGGATATATGAACACACAAAAAAAAAATATAT [CACACA_site2896] | 9.88
81 | TATTTATTACTATGTAAACACACATGCAATATATGT [CACACA_site8288] | 9.88
82 | TTTTTTCCTTTTAATTGTACACAGATATAATATATT [XGTACX_site2230] | 9.63
83 | AAATTTTATTATAGCAGTACAATATAATATTATTAA [XGTACX_site1971] | 9.44
84 | TGGTATGTTTTACAAAGTACCCATCGATTCTTATGT [XGTACX_site2822] | 9.61
85 | GTACTCTTCTCCAGACTGCACTATACGACTCGTACA [GTGCAC_site9770] | 9.75
86 | ATATATATATATATATGTACTTATATATAATATAGA [XGTACX_site3488] | 9.57
87 | ATTACATACACGCGCACACACAAAAAAAAAAAAAAA [CACACA_site1334] | 9.98
88 | AATATATTTTTCTACCGTACATAATAAAATATATAT [XGTACX_site1777] | 9.6
